Publication PMC4336329 (PLoS ONE, 2015)
The whole screen tested about 310,000 compounds, of which about 14,000 (4.5%) showed an effect of 50% or more. Effects have a minus sign here. The list shows a part of the results.

Molecular target: human ether-à-go-go-related gene (hERG) potassium channel (human, UniProt Q12809)
Assay: primary screen, population patch clamp on CHO cells stably expressing hERG
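Note: peak tail current of the secondary pulse compared with the same well before compound.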

human ether-à-go-go-related gene (hERG) potassium channel, sequence (Q12809 whole entry, looked up): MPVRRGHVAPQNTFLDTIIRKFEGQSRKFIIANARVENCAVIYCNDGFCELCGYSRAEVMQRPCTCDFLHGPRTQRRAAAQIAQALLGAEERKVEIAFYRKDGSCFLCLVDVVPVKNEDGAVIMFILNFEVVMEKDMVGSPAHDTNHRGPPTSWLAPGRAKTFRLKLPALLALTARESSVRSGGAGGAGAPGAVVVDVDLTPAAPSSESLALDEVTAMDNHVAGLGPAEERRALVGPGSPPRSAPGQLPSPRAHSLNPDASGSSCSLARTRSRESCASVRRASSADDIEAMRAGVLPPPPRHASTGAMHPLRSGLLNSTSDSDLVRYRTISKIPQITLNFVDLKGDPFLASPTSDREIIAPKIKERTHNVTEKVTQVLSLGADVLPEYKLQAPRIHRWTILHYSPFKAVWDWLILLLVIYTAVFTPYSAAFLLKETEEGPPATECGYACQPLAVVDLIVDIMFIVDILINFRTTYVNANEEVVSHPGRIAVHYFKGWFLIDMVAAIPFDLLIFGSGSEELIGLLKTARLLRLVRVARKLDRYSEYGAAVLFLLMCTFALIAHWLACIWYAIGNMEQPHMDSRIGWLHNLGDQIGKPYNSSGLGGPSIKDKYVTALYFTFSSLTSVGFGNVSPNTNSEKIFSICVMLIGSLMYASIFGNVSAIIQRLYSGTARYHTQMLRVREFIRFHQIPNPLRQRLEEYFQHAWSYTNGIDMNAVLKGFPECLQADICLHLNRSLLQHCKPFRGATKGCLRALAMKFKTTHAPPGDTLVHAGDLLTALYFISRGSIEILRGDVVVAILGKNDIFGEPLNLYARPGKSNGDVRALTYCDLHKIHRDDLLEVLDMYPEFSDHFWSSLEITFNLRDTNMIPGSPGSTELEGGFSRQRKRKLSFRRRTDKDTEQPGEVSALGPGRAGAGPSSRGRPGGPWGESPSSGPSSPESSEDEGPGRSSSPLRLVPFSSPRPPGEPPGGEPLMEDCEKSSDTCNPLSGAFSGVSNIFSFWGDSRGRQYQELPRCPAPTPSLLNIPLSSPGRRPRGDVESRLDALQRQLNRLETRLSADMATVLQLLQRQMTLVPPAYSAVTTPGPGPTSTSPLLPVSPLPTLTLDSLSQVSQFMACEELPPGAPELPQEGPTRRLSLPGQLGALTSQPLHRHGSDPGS

Row | Structure (SMILES) | hERG current change (%, negative = inhibition) at 10uM [%]
1 | Cc1cccc(N(CC(=O)NC2CCCC2)C(=O)c2c(C)noc2C)c1 | 8.05
2 | COC(=O)[C@H]1Cc2cnoc2C[C@]1(C)C(=O)O | 5.43
3 | CC(=O)Nc1ccccc1C(=O)N1CCN(c2cccc(C)c2C)CC1 | 12.8
4 | CN(C)C(=S)c1ccc(N(C)C)cc1 | 14.8
5 | FC(F)(F)c1ccc(NC(=S)NCc2ccccc2)cc1 | 3.15
6 | COc1ccc(O)c(/C=N/NC(=O)c2ccc(OCc3cccc(Br)c3)cc2)c1 | 9.95
7 | COc1ccc(C2Nc3ccccc3C(=O)N2Cc2ccco2)cc1COc1ccc(F)cc1 (centres unmarked) | -1.98
8 | O=C(Nc1cccc(-c2nn[nH]n2)c1)c1ccc(Cl)s1 | 12.8
9 | CCOc1ccc(CCNC(=O)Cc2ccc(NC(=O)C3=C(C)OCCS3)cc2)cc1 | 20.9
10 | CCOc1cc(/C=N/NC(=O)CSc2nncn2C)ccc1OCc1ccccc1 | -16.5
11 | Cc1ccc(NC(=O)Cn2nnc3ccccc3c2=O)cc1C | 16.1
12 | COc1ccc(OC)c(CN(CCCN2CCOCC2)S(=O)(=O)c2ccc(NC(C)=O)cc2)c1 | -6.36
13 | Cc1nc(N2CCN(c3ccc(Cl)cc3)CC2)[nH]c(=O)c1C | 16.3
14 | CCCn1c(SCC(=O)Nc2ccccc2OC)nnc1-c1ccco1 | -68.5
15 | Cc1ccc(C2C=C(c3ccccc3OC(F)F)Nc3ncnn32)cc1 (centres unmarked) | -7.34
16 | COc1ccccc1C(=O)Nc1sc2c(c1C(=O)NCc1ccco1)CCCC2 | 7.82
17 | CCCCOC(=O)CSc1nc2ccccc2o1 | 5.27
18 | COc1ccc(S(=O)(=O)N2CC(=O)Nc3ccccc32)cc1 | -6.04
19 | Cn1c(=O)n(C)c2cc(S(=O)(=O)O)ccc21 | 4.49
20 | Cn1c(SCC(=O)NCC2CCCO2)nnc1-c1ccc(S(=O)(=O)N2CCCC2)cc1 (centres unmarked) | 11.4
21 | N/C(=N\OC(=O)COc1ccc(Br)cc1Cl)c1ccccn1 | -2.1
22 | Cc1ccc(/C=N/NC(=O)c2ccoc2C)s1 | -1.92
23 | CC(C)[C@H](NC(=O)C1CCN(S(=O)(=O)c2ccc(F)cc2)CC1)C(=O)NCc1ccco1 | 4.09

Row | Structure (SMILES) | hERG current change (%, negative = inhibition) at 10uM [%]
24 | CC(C)(Cc1cccc(CC(C)(C)C(=O)O)c1)C(=O)O | 13.1
25 | CCOC(=O)c1c(C)[nH]c(C)c1C(=O)COC(=O)CNC(=O)c1ccc(OCC)cc1 | -2.83
26 | CCNc1nc(NC(C)C)nc(OCCOC(=O)Nc2ccccc2)n1 | -4.72
27 | O=C(COC(=O)c1ccco1)Nc1ccc(Br)cc1 | -22.8
28 | CCOC(=O)C1CCN(C(=O)CCC2CCCC2)CC1 | 15.8
29 | CCN1CCN(Cc2nc3c(c(=O)[nH]c(=O)n3C)n2Cc2ccccc2Cl)CC1 | 14.8
30 | CCCNC(=O)C(CC)NC(=O)c1ccc(C#N)cc1 (centres unmarked) | 6.89
31 | Cc1ccc(CCNC(=O)C2CCC(=O)N2Cc2cccnc2)cc1 (centres unmarked) | 12.2
32 | Cn1c(=O)c(C(N)=S)cn(-c2ccccc2)c1=O | 7.08
33 | O=C(CCN1C(=O)C2CC=C(Cl)CC2C1=O)Nc1ccccc1O (centres unmarked) | 3.32
34 | Cc1ccc2[nH]c(=O)c(C(c3nnnn3C3CCCC3)N3CCCc4ccccc43)cc2c1 (centres unmarked) | -6.05
35 | Cc1oc(=O)c(NC(=O)c2ccc(Cl)cc2)cc1C(=O)c1ccccc1 | 22.6
36 | CCCCCc1c(C)nc(NCc2ccccc2)[nH]c1=O | -4.44
37 | CC(=O)NCCN=C(C)c1sc2ccccc2c1O | 9.46
38 | Cc1ccc(-c2cc(Cc3ccccc3)c(=O)[nH]n2)cc1 | 11.5
39 | Cc1cc(C(F)(F)F)cc(NNC(=O)NC(=O)c2ccc(Cl)cc2)n1 | 14.1
40 | S=c1[nH]c2cc(-c3ccccc3)ccc2o1 | 19.3
41 | COC(=O)[C@@]12CCCCN1[C@H](c1ccc(-c3ccc(OC)cc3)cc1)[C@@H]1C(=O)N(C)C(=O)[C@@H]12.O=C(O)C(F)(F)F | -8.63
42 | CCNC(=S)Nc1ccccc1-c1ccccc1 | 13.1
43 | CCC(=O)c1ccc(OCC(=O)OCC(=O)Nc2cccc(S(=O)(=O)N3CCCC3)c2)cc1 | 1.57
44 | O=C(c1ccc(CS(=O)c2ccccc2Cl)o1)N1CCCCCC1 (centres unmarked) | 14.5
45 | Cc1cccc(NC(=O)C2CCCN(S(=O)(=O)c3cccc4nsnc34)C2)c1 (centres unmarked) | -8.94
46 | Cc1cc(C)c(C)c(S(=O)(=O)N[C@@H](C)C(=O)OC(C)C(=O)NC(N)=O)c1C (some centres unmarked) | -16.9

Row | Structure (SMILES) | hERG current change (%, negative = inhibition) at 10uM [%]
47 | Cc1ccc(C[n+]2c(-c3ccc(C)cc3)cc(-c3ccc(C)cc3)cc2-c2ccc(C)cc2)cc1.[O-][Cl+3]([O-])([O-])[O-] | -75.6
48 | S=c1[nH]nc(CSc2nc3ccccc3s2)n1C1CCCCC1 | 6.81
49 | CCC(C)N(C(=O)CSc1nnc(C)n1C)C1CCS(=O)(=O)C1 (centres unmarked) | 3.01
50 | Cc1cc(C(=O)COC(=O)c2ccc(N)c([N+](=O)[O-])c2)c(C)n1Cc1ccc2c(c1)OCO2 | -0.0821
51 | COc1ccc(C2(C(=O)NC3CCCCC3)CCOCC2)cc1OC | 6.29
52 | Cc1cc(OCCN2CCCC2)cc(C(C)C)c1.O=C(O)C(=O)O | -0.795
53 | CC(C)(C)CC(=O)O/N=C(\N)c1ccccn1 | 11.6
54 | O=C(CCN1CCN(Cc2ccccc2)CC1)Nc1ccccc1Cl | -46.2
55 | Cc1cc(C2=NNC(=Nc3ccc(S(=O)(=O)N4CCOCC4)cc3)SC2)c(C)n1CC1CCCO1 (centres unmarked) | 14.1
56 | Cc1cccc(NC(=O)c2sc(C)nc2C)c1 | -15.6
57 | CC(C)(C)OC(=O)N1CCC(C(=O)NNC(=O)c2ccc(Cl)cc2Cl)CC1 | 8.15
58 | CC(=O)Nc1cccc(NC(=O)Nc2cccc3ccccc23)c1 | 17.6
59 | O=C(NCCn1cccn1)c1ccc(OC2CCN(C(=O)C3CC3)CC2)cc1 | 12
60 | O=C(O)/C=C/c1cn(-c2ncc(C(F)(F)F)cc2Cl)c2ccccc12 | 16.4
61 | COc1ccc(NC(=O)COC(=O)C2CCN(S(=O)(=O)c3cccs3)CC2)cc1 | -26.8
62 | CC(NC(=O)COC(=O)[C@@H]1CCCN1S(=O)(=O)c1ccccc1F)C12CC3CC(CC(C3)C1)C2 (some centres unmarked) | -10.7
63 | CCCCCCCCOC(=O)/C=C/c1c(C)[nH]c(=O)[nH]c1=O | 10.7
64 | CN(C)N=Nc1ccc(S(=O)(=O)N2CCSC2C(=O)O)cc1 (centres unmarked) | 2.21
65 | S=c1[nH]nc(-c2ccc3ccccc3n2)o1 | 17.2
66 | COc1ccc(N2CCOCC2)c(NC(=O)c2cccnc2)c1 | 12.8
67 | O=C(COC(=O)c1cccc(S(=O)(=O)N2CCOCC2)c1)Nc1ccc2c(c1)OCO2 | -1.52
68 | COc1ccc(C(=O)NC2CCC(O)CC2)cc1S(=O)(=O)NCc1ccc(Cl)cc1 (centres unmarked) | -6.07
69 | N#CCc1ccc(OC(=O)c2cccnc2)cc1 | 6.71

Row | Structure (SMILES) | hERG current change (%, negative = inhibition) at 10uM [%]
70 | Cn1c(=O)oc2cc(S(=O)(=O)NC3CCN(Cc4ccccc4)CC3)ccc21 | -36.4
71 | COc1cc(/C=N\NC(=O)OC(C)(C)C)ccc1OC(=O)c1ccco1 | 36.3
72 | CC1C=CCC2C(=O)N(c3cccc(C(=O)Nc4ccc(Br)cc4)c3)C(=O)C12 (centres unmarked) | -15
73 | COc1ccccc1NS(=O)(=O)c1ccc(C)c(C(=O)NC2=NCCS2)c1 | -6.94
74 | CN(CC(=O)NC1CCCc2ccccc21)C1CCCCC1 (centres unmarked) | 14.1
75 | Cc1ccc2cc(C(c3nnnn3CC3CCCO3)N3CCc4ccccc4C3)c(=O)[nH]c2c1 (centres unmarked) | -42.1
76 | COc1ccc(-c2nn3cnnc3s2)cc1OC | -0.709
77 | O=C(NCc1ccc2c(c1)OCO2)C(=S)N1CCOCC1 | 18.6
78 | COc1cccc(-c2nnc(NC(=O)Cc3cccs3)s2)c1 | 10.3
79 | COC(=O)C(CSCc1ccccc1)NC(=O)CSc1nc(C)cc(=O)[nH]1 (centres unmarked) | 18.4
80 | COc1ccc([N+](=O)[O-])cc1NC(=O)CSc1nccc(C)n1 | -2.9
81 | O=C1C=C(Nc2ccc(O)cc2)C(=O)c2ccccc21 | 4.35
82 | CCOC(=O)CSc1nc2ccsc2c(=O)[nH]1 | 26.3
83 | COCCN(C(=O)c1cc(-c2ccncc2)nc2ccccc12)c1c(N)n(CC(C)C)c(=O)[nH]c1=O | 3.66
84 | COCCn1c(SCC(=O)N2CCC(C)CC2)nc2c(c1=O)SCC2 | -40.6
85 | COc1ccc(/C=C/C(=O)Nc2ccc(C34CC5CC(CC(O)(C5)C3)C4)cc2)cc1OC | 16.2
86 | COc1ccc([C@H]2CC(=O)C=C(c3ccc(-c4ccccc4)c(F)c3)C2)cc1OC | 24.4
87 | O=C(COC(=O)/C=C/c1ccccc1)Nc1nnc(-c2ccccc2)o1 | 1.9
88 | Cc1ccc(C(=O)Cn2ncsc2=N)cc1 | -12.5
89 | CC1(C)CC(=O)C(C2=NC3(CCCCCC3)Cc3ccccc32)=C(O)C1 | -12.7
